Drawing on PubChem BioAssay (NCATS), this text covers AC50 and z-score for 11 molecules.

Experiment [1] can be described thus: qHTS drug screen for cell cycle checkpoint inhibitors in PARPi-resistant BRCA-mutant ovarian cancer cell lines. (AID 1963452). The note with it: PEO1/OlaR viability, CellTiter-Glo luminescence, 96 h. In short, it runs like this:
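PEO1, PEO4 and PEO1/OlaR ovarian cancer cells, 600 per well, exposed 96 h at 37C to a dilution series. Viability read by CellTiter-Glo luminescence, normalized to DMSO and empty wells; activity summarized as Z-AUC.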

Experiment [2] is described as follows: qHTS for identification of novel therapeutic agents for treatment of microphthalmiaassociated transcription factor (MiT) renal cell carcinoma (RCC) (AID 1963991). The conditions noted are these: CellTiter-Glo, 48 h; for z-score: stronger effect = lower value. In short, it runs like this: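 Curves over 11 concentrations were fitted to CellTiter-Glo luminescence, scaled between empty wells (0%) and DMSO (100%) viability. Cells were UOK109, UOK124 and UOK145 TFE3-fusion RCC lines at 500/well, exposed 48 hours at 37 C.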

Setting [3] is: measured here: PEO1 parental viability.
[4] abbreviates: TFE3-RCC UOK109 viability, measured here: UOK109 Z-AUC.
Where [5] appears, read: TFE3-RCC viability, measured here: UOK124 Z-AUC.
[6] abbreviates: TFE3-RCC viability, measured here: UOK124 cell viability.
Setting [7] is: TFE3-RCC viability, measured here: UOK145 Z-AUC.
Setting [8] is: TFE3-RCC viability, measured here: UOK145 cell viability.

SMILES strings stand for the structures. Some of the results follow. These are further read-outs of the screen, such as a control signal, another cell line or another target. No call is given for them. For some assays here: The list favours compounds with an active or inconclusive main result. The note in brackets gives the kind of curve behind each potency; many fits are weak.
Tags give direction and shape of the fitted curve.

On to `CCNC(=O)c1cc2c(-c3cc(OCCN4CCCC4)c(Cl)cc3Cl)nc(N)nc2s1`, for which the AC50 in experiment [1] (setting [3]) was 0.952 µM [falling, full curve]; in experiment [1] (measured here: PEO4 viability), 3.38 µM [falling, partial curve, poor fit]; in experiment [2] (setting [6]), 0.105 µM [falling, full curve, poor fit]; in experiment [2] (setting [8]) it was 2.35 µM [falling, full curve]. For the same molecule, the z-score in experiment [2] (setting [4]) is 0.071; in experiment [2] (setting [5]) it was -0.0238; in experiment [2] (setting [7]), -0.231.

With `COc1cc(N2CCC(N3CCN(C)CC3)CC2)ccc1Nc1ncnc(Nc2ccccc2S(=O)(=O)C(C)C)n1`, the concentration at half-maximal activity (AC50) in experiment [1] (setting [3]) is 15.5 µM [falling, single point]; in experiment [1] (measured here: PEO4 viability), 19.5 µM [falling, partial curve]; in experiment [2] (setting [6]), 18.7 µM [falling, partial curve]; in experiment [2] (setting [8]), 10.5 µM [falling, full curve]. The z-score in experiment [2] (setting [4]) was -1.65; in experiment [2] (setting [5]), -0.244; in experiment [2] (setting [7]), -0.836.

As to `Cc1cc(Nc2cc(N3CCN(C)CC3)nc(Sc3ccc(NC(=O)C4CC4)cc3)n2)n[nH]1`, the AC50 is 8.71 µM [falling, partial curve] in experiment [1] (setting [3]); 0.549 µM [falling, partial curve, poor fit] in experiment [1] (measured here: PEO4 viability); 18.7 µM [falling, partial curve] in experiment [2] (setting [6]); 18.7 µM [falling, partial curve] in experiment [2] (setting [8]). Also, the z-score in experiment [2] (setting [4]) is 0.825; in experiment [2] (setting [5]), -0.0063; in experiment [2] (setting [7]), -0.228.

For the molecule `CC(C)(C)Cn1c(N)nc2ccc(-c3[nH]c(C(C)(C)C)nc3-c3ccc(F)cc3)nc21`, the AC50 in experiment [1] (setting [3]) is 24.5 µM [falling, single point]; in experiment [1] (measured here: PEO4 viability), 17.4 µM [falling, single point]; in experiment [2] (setting [6]), 23.5 µM [falling, partial curve]; in experiment [2] (setting [8]) it was 23.5 µM [falling, partial curve]. For the same molecule, the z-score in experiment [2] (setting [4]) is -0.812; in experiment [2] (setting [5]), -0.688; in experiment [2] (setting [7]) it was -0.219.

`S=c1nc[nH]c2nc[nH]c12`: the AC50 is 2.19 µM [falling, full curve] in experiment [1] (setting [3]); 1.95 µM [falling, full curve] in experiment [1] (measured here: PEO4 viability); 0.833 µM [falling, full curve] in experiment [2] (setting [6]); 4.18 µM [falling, full curve] in experiment [2] (setting [8]). In addition, the z-score in experiment [2] (setting [4]) was -0.403; in experiment [2] (setting [5]), -0.967; in experiment [2] (setting [7]), -0.545.

Regarding `CN1N=C(N)c2cn([C@@H]3O[C@H](COP(=O)(O)O)[C@@H](O)[C@@H]3O)c3ncnc1c23`, the AC50 in experiment [1] (setting [3]) was 3.09 µM [falling, full curve]; in experiment [1] (measured here: PEO4 viability) it was 2.19 µM [falling, partial curve]; in experiment [2] (setting [6]) it was 0.372 µM [falling, partial curve]; in experiment [2] (setting [8]) it was 5.9 µM [falling, partial curve]. Besides, the z-score was -0.24 in experiment [2] (setting [4]), -0.235 in experiment [2] (setting [5]) and 0.165 in experiment [2] (setting [7]).

Take `CC(C)Oc1cc(Nc2nc(N[C@@H](C)c3ccc(F)cn3)ncc2Cl)[nH]n1`: the AC50 in experiment [1] (setting [3]) is 6.92 µM [falling, partial curve]; in experiment [1] (measured here: PEO4 viability) it was 21.9 µM [falling, partial curve, poor fit]; in experiment [2] (setting [6]) it was 9.35 µM [falling, full curve]; in experiment [2] (setting [8]), 18.7 µM [falling, partial curve]. For the same molecule, the z-score was -0.546 in experiment [2] (setting [4]), -1.05 in experiment [2] (setting [5]) and -0.166 in experiment [2] (setting [7]).

On to `COc1ccc(OC)c(-c2nnc3ccc(-c4ccc(OC)c(O[C@@H]5CCOC5)c4)nn23)c1`, for which the AC50 in experiment [1] (setting [3]) was 3.47 µM [falling, full curve]; in experiment [1] (measured here: PEO4 viability) it was 0.347 µM [falling, full curve, poor fit]; in experiment [2] (setting [6]), 8.33 µM [falling, full curve]; in experiment [2] (setting [8]), 23.5 µM [falling, partial curve]. Moreover, the z-score was -0.44 in experiment [2] (setting [4]), -0.874 in experiment [2] (setting [5]) and -0.619 in experiment [2] (setting [7]).

With `CN(C)c1ccc(C(=O)NCCCCCCC(=O)NO)cc1`, the AC50 in experiment [1] (setting [3]) is 3.47 µM [falling, full curve]; in experiment [1] (measured here: PEO4 viability), 4.36 µM [falling, partial curve]; in experiment [2] (setting [6]), 2.64 µM [falling, full curve]; in experiment [2] (setting [8]), 7.43 µM [falling, partial curve]. Besides, the z-score in experiment [2] (setting [4]) was -0.955; in experiment [2] (setting [5]), -1.97; in experiment [2] (setting [7]), -0.354.

Take `CN(C)CC[C@H](CSc1ccccc1)Nc1ccc(S(=O)(=O)NC(=O)c2ccc(N3CCN(Cc4ccccc4-c4ccc(Cl)cc4)CC3)cc2)cc1[N+](=O)[O-]`: the AC50 was 24.5 µM [falling, single point] in experiment [1] (setting [3]); 4.36 µM [falling, full curve] in experiment [1] (measured here: PEO4 viability); 16.6 µM [falling, partial curve] in experiment [2] (setting [6]); 16.6 µM [falling, partial curve] in experiment [2] (setting [8]). In addition, the z-score in experiment [2] (setting [4]) is -0.898; in experiment [2] (setting [5]), 0.201; in experiment [2] (setting [7]) it was 0.213.

With `O=C(NC1CC1)c1cccc(-c2ccc3c(NC(=O)C4CC4)n[nH]c3c2)c1`, the AC50 in experiment [1] (setting [3]) was 1.74 µM [falling, full curve]; in experiment [1] (measured here: PEO4 viability), 2.19 µM [falling, full curve]; in experiment [2] (setting [6]) it was 10.5 µM [falling, full curve]; in experiment [2] (setting [8]), 16.6 µM [falling, partial curve]. The z-score was 0.405 in experiment [2] (setting [4]), -0.565 in experiment [2] (setting [5]) and -0.372 in experiment [2] (setting [7]).
